The structures appear in SMILES notation. Hit rate of the full screen: of about 150,000 compounds, about 540 (0.36%) showed an effect of 50% or more. The list shows a part of the results.

This assay concerns Plasmodium falciparum. The assay is described as follows: Primary screen in NF54 nanoGlo assay, in single point, at 2uM, 72h; a lower Z score goes with more inhibition. It is filed as functional, Erythrocyte. As to conditions: timepoint 72 hour.
With `CS(=O)(=O)N1CCC[C@H]1C(=O)N(CCc1ccccc1)Cc1cccnc1`, the “% Inhibition” value is -9% and the Z score came out at 1.7.
The like results for `Cc1nc(N)nc(N2C[C@H](O)[C@@H](N(C)C)C2)c1Cl` were, in that order, 1% and -0.16.
The like results for `C[C@H](NC(=O)CC(F)(F)F)c1ccccc1` were, in that order, -5% and 0.94.
The like results for `CCCCC(=O)Nc1cc(NC(=O)c2cnc[nH]2)ccc1OC` were, in that order, -14% and 1.86.
Consider `O=C(C1CCC(O)CC1)N1CCC[C@@H]1CN1CCCCCC1` (some centres undefined), for which the “% Inhibition” value was -13% and the Z score is given as 1.69.
As to `COCCN1C(=O)CC(CC(=O)N2CCCC(COc3ccccc3C)C2)(c2ccccc2F)C1=O` (centres undefined), the “% Inhibition” value is on record as 15% and the Z score is on record as -1.94.
The like results for `CCCC(C)(C)NC(=O)c1sccc1CC` were, in that order, -7% and 1.08.
The like results for `CCNC(=O)CN(C)CC(F)(F)c1ccc(F)cc1` were, in that order, -10% and 1.22.
`COc1cc(CC(=O)N2CCO[C@H](c3ncon3)C2)ccc1Cl`: the “% Inhibition” value is recorded as -6% and the Z score was determined as 0.99.
The like results for `CCCCOc1ccc(C2C3C(=O)N(c4ccc5ccccc5c4)C(=O)C3ON2c2ccccc2)cc1OCC` (centres undefined) were, in that order, -4% and 0.47.
The corresponding values for `O=C1CC(C(=O)N2CCOCC2)C(c2ccc3c(c2)OCCO3)O1` (centres undefined) are 39% and -5.05.
The corresponding values for `Cc1cc([C@@H]2CCCN2S(=O)(=O)NCc2ccccc2)on1` are -5% and 0.86.
On to `CC(C)C1(CNC(=O)Cc2cncnc2)CC1`, for which the “% Inhibition” value is recorded as -8% and the Z score turned out to be 1.38.
The corresponding values for `COc1ccc(CCn2cc(-c3ccc4c(c3)OCCO4)nn2)cc1O` are -7% and 0.63.
The like results for `CCN1CC2(CCN(C(=O)c3cc[nH]n3)CC2)C[C@@H](c2ccccc2)C1=O` were, in that order, -8% and 1.53.
With `CNC(=O)c1ccc(Cn2cncc(Br)c2=O)cc1`, the “% Inhibition” value was 1% and the Z score is on record as -0.1.
The like results for `COc1ncncc1CN1CCC(C(F)(F)F)CC1` were, in that order, -37% and 4.31.
The corresponding values for `Cc1cccc(C)c1OCC(=O)N(Cc1ccc(N(C)C)cc1)[C@H]1CCS(=O)(=O)C1` are -17% and 1.55.
`Cc1cc(C)cc(CN2C(=O)NC3(CCS(=O)(=O)CC3)C2=O)c1`: the “% Inhibition” value turned out to be 6% and the Z score is recorded as -0.71.
For the molecule `COc1ccc(-c2n[nH]c(C)c2NC(=O)C2CCCCC2)cc1OC`, the “% Inhibition” value amounted to 0% and the Z score is recorded as 0.01.
The corresponding values for `COc1cc(NC(=O)CN2CCC[C@H](c3cc(O)ncn3)C2)cc(OC)c1` are -15% and 2.13.
Turning to `O=C(Nc1ccc(N2CCN(C(=O)c3ccco3)CC2)c(Cl)c1)c1ccc2nsnc2c1`, the “% Inhibition” value was -42% and the Z score was 4.93.
The like results for `CCOC(=O)c1n[nH]c(C(F)(F)F)c1Cl` were, in that order, 4% and -0.6.
Turning to `CCC(=O)N(CC(=O)N1CCc2sccc2[C@@H]1COc1ccc(Cl)c(C)c1)CC1CC1`, the “% Inhibition” value is listed as 9% and the Z score is given as -0.86.
The like results for `CC[C@H](C)NC(=O)Cn1c(=O)n(Cc2ccc(F)cc2)c(=O)c2sccc21` were, in that order, -11% and 1.38.
The corresponding values for `CC[C@H]1c2ccccc2CN1C(=O)NCc1ccnc(-n2cncn2)c1` are 10% and -1.22.
Take `COCCc1nc([C@@H]2CC[C@H](N)C2)n(-c2ccc(OC(F)(F)F)cc2)n1`: the “% Inhibition” value is recorded as 14% and the Z score is given as -1.81.
Consider `Cc1ccc(NC(=O)Cn2nc(N3CCCC3)c3ccccc3c2=O)c(C)c1`, for which the “% Inhibition” value is given as -3% and the Z score stood at 0.4.
The like results for `C[C@@H]1CCO[C@@H]1C(=O)Nc1cc(C2CCCC2)[nH]n1` were, in that order, -7% and 1.27.
For the molecule `COc1ccc(Cl)cc1-c1c(C)nn(-c2nnn[nH]2)c1C`, the “% Inhibition” value is -5% and the Z score was found to be 0.8.
The corresponding values for `Cc1ccc(C)c(C2CCN(C(=O)c3c[nH]nn3)CC2)c1` are -1% and 0.13.
The like results for `O=C(NCCN1C(=O)COC1=O)c1cccs1` were, in that order, 12% and -2.12.
The like results for `O[C@@H](CN1CCN(Cc2ccccc2F)CC1)C1CC1` were, in that order, -5% and 0.97.
With `Brc1cnc(N2CCCN(c3ccncc3)CC2)nc1`, the “% Inhibition” value turned out to be 22% and the Z score was -2.55.
The like results for `COCCOCC(=O)N1CCCCCc2ccccc21` were, in that order, -2% and 0.26.
The corresponding values for `O=c1cc2c(nn1CN1CCN(c3ccccn3)CC1)CCC2` are 9% and -1.01.
The like results for `COc1cccc(CNC(=O)Nc2ccncc2C)n1` were, in that order, 1% and -0.08.
Regarding `COCC(=O)NC[C@@H]1C[C@H](F)CN1C(=O)c1ccc2c(c1)OCCO2`, the “% Inhibition” value was determined as 8% and the Z score is -1.49.
The like results for `CN1CCC(n2ncc3c2NC(=O)C[C@@H]3c2cc(C#CCO)cs2)CC1` were, in that order, -11% and 1.09.
On to `O=C(NC[C@H]1CCN1C1CCOCC1)c1cc(F)c2ncccc2c1`, for which the “% Inhibition” value is on record as -9% and the Z score turned out to be 0.96.
The like results for `Cc1cc(C(=O)NCc2nccc(N)n2)sc1C` were, in that order, -10% and 1.73.
The corresponding values for `COCC1(NC(=O)Cc2ccc3[nH]c(C)nc3c2)CCCC1` are -6% and 1.06.

The record behind these values is ChEMBL document CHEMBL4888484, “Replenishing the malaria drug discovery pipeline: Screening and hit evaluation of the MMV Hit Generation Library 1 (HGL1) against asexual blood stage Plasmodium falciparum ,using a nano luciferase reporter read-out” (2022).
